# Test results as given in PubChem BioAssay AID1347120 (National Center for Advancing Translational Sciences (NCATS), 2019).
# Out of some 390,000 compounds screened, about 930 (0.24%) were called active. The shares of active, inactive and inconclusive entries below differ from those in the screen. The call rests on the fitted dose curve; in most records, active means well fitted activation curve with a large enough effect; inconclusive means small, poorly fitted or top-dose-only effect; inactive means no such curve, though single readings can be large or run the other way. Where the call is inconclusive, the potency comes from a doubtful curve fit.
# Assay: qHTS for Suppressors of FUS Proteinopathy: Primary screen using FUS-linked yeast assay; further: nearly all actives have a fitted effect of over 55% in size;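 on growth rescue (activation): plate controls were DMSO vehicle for no effect and reference control for full effect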
# Conditions: S. cerevisiae FUS-expressing, OD600, 24 h; Potency: growth rescue; growth rescue (activation): at 76.6 µM (top of the series)
# Summary of the method: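 Read-out: OD at 600 nm after 24hr at 30C, reporting rescue of FUS-induced yeast toxicity. Cells at OD 0.005 in galactose (2%) minimal medium; compounds tested in a dilution series; CP55940 titration from 92uM final as control.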
# Potency means the concentration at half of the fitted maximal effect; tags describe the fitted curve by direction and shape.
Compound,Potency,growth rescue (activation)
CC1(C(=O)NS(=O)(=O)c2ccc3c(c2)CCO3)CCN1C(=O)Cc1ccc(-c2ccccc2)cc1 (configuration not stated),"inconclusive: 28.2 µM [activator, partial curve, poor fit]",–
C=CCC[C@H](Cc1ccc(F)cc1)C(=O)OC[C@H](Cc1c[nH]c2ccccc12)NC(=O)[C@@H](CC=C)CC(=O)NCCO,"inconclusive: 35.5 µM [activator, single point]",–
COc1ccc(NC(=O)c2cc(-c3cc(F)ccc3OC(C)C)n[nH]2)c(OC)c1,–,inactive: 33.9%
C/C=C/c1ccc([C@H]2[C@@H](CN(CC(C)C)S(=O)(=O)c3ccccc3[N+](=O)[O-])N(C(=O)Nc3cccc(OC)c3)[C@H]2CO)cc1,"inconclusive: 35.5 µM [activator, single point]",–
COc1ccc(CNC(=O)CCc2c(C)nn(-c3ccc(N4CCCC4)nn3)c2C)c(OC)c1,–,inactive: 20.4%
COC(=O)c1sccc1NC(=O)CC1C(=O)NCCN1C(=O)Nc1ccc(OCc2ccccc2)cc1 (configuration not stated),"inconclusive: 50.1 µM [activator, single point]",–
O=C(NC1CCCCN(Cc2ccc(Cl)cc2)C1=O)c1cc(-c2ccccc2)no1 (configuration not stated),"inconclusive: 28.2 µM [activator, single point]",–
CCN(CC)CCNC(=O)c1ccc2c(c1)NC(=O)C(CS(=O)(=O)Cc1ccc(F)cc1Cl)N2 (configuration not stated),"inconclusive: 50.1 µM [activator, single point]",–
CCN(CC)CCN1CCn2c3c(c4cc(C)ccc42)CCCC31 (configuration not stated),–,inactive: -20.7%
Cc1nn(C)c2c1c(-c1ccccc1)cc(=O)n2C(C)C(=O)NCCc1ccc(Cl)cc1 (configuration not stated),"inconclusive: 20 µM [activator, partial curve]",–
O=C(N1CCC(C(O)(c2ccccc2)c2ccccc2)CC1)n1ncc(C(O)(c2ccccc2)c2ccccc2)n1,"inconclusive: 15.8 µM [activator, partial curve]",–
CCOC(=O)c1ccc(Nc2nc(N)c3cc(OC)c(OC)cc3n2)cc1,inactive,–
Clc1ccc2c(c1)c1ccccc1n2CN1CCOCC1,–,inactive: 4%
COc1ccc(Cn2c(=S)[nH]c3cc(OC)c(OC)cc3c2=O)cc1,"inconclusive: 6.31 µM [activator, partial curve, poor fit]",–
CCOc1ccccc1OCCCC(=O)N1CCN(S(=O)(=O)c2cccc(F)c2)CC1,"inconclusive: 39.8 µM [activator, single point]",–
CCC1CCCCN1S(=O)(=O)c1ccc(NC(=O)c2nc(SC)ncc2Cl)cc1 (configuration not stated),"inconclusive: 11.2 µM [activator, partial curve, poor fit]",–
Cc1ccc(S(=O)(=O)Nc2ccc3c(c2)C(=O)N([C@H](C)CO)C[C@@H](C)[C@@H](CN(C)C(=O)Nc2cccc4ccccc24)O3)cc1,"inconclusive: 22.4 µM [activator, partial curve, poor fit]",–
COc1ccc(C2NC(=S)N(c3ccccc3)C(C)=C2C(=O)Nc2ccccc2)cc1 (configuration not stated),–,inactive: 39.3%
Cn1c2ccccc2c2cnn(CC(=O)O)c(=O)c21,–,inactive: -0.9%
CCc1nc(C)c(C(=O)N2CCCC(C(=O)Nc3cccc(-c4cccc(C)c4)c3)C2)o1 (configuration not stated),"inconclusive: 50.1 µM [activator, single point]",–
COc1cc(C(=O)NCC2CCCO2)ccc1OCc1ccc(Cl)cc1Cl (configuration not stated),"inconclusive: 50.1 µM [activator, single point]",–

Compound,Potency,growth rescue (activation)
CC(OC(=O)CNC(=O)C12CC3CC(CC(C3)C1)C2)C(=O)Nc1ccc(N2CCOCC2)cc1 (configuration not stated),"inconclusive: 10 µM [activator, partial curve]",–
O=S(=O)(c1ccccc1)N1N=C(c2cccs2)CC1c1ccc(Br)cc1 (configuration not stated),–,inactive: 30.5%
COC(OC)c1ccc(C#N)c(SCc2ccccc2)n1,–,inactive: 6.16%
CON(C)C(=O)CC(CN(Cc1ccccc1)C(=O)OC(C)(C)C)c1ccc(Cl)cc1 (configuration not stated),"inconclusive: 14.1 µM [activator, partial curve, poor fit]",–
COc1ccc(CNC(=O)C2Cc3c(-c4ccccc4Oc4ccccc4)ccnc3O2)cc1OC (configuration not stated),"inconclusive: 31.6 µM [activator, single point]",–
CCCCCNC(=O)C(c1ccccc1F)n1c(=O)c(-c2ccco2)nc2ccccc21 (configuration not stated),"inconclusive: 20 µM [activator, partial curve, poor fit]",–
COc1ccc(CNC(=O)CCCCCn2c(SCC#N)nc3cc4c(cc3c2=O)OCO4)cc1,"inconclusive: 39.8 µM [activator, single point]",–
CC(C)C[C@@]12C(=O)N(c3cccc(Br)c3)C(=O)N1[C@H](c1ccc(F)cc1)[C@@H]1C(=O)N(C3CCCCC3)C(=O)[C@@H]12,"inconclusive: 17.8 µM [activator, partial curve]",–
CC(C)(C)c1ccc(-c2nnc3n2N=C(c2ccc(Cl)cc2)CS3)cc1,–,inactive: 3.94%
CC(C)CCn1c(N2CCc3ccccc3C2)nc2c1c(=O)[nH]c(=O)n2C,–,inactive: -16%
CNC(=O)c1[nH]cnc1C(=O)N[C@@H](CC(C)C)C(=O)OCc1ccccc1,"inconclusive: 28.2 µM [activator, partial curve, poor fit]",–
COc1ccc(OC)c(NC(=O)CN2CCN(C(=O)c3ccco3)CC2)c1,"inconclusive: 28.2 µM [activator, single point]",–
CCNC(=O)C1(C)CCN(C(=O)c2ccccc2F)C1 (configuration not stated),–,inactive: -20.1%
COc1cccc(C2C(C(=O)Nc3ccc(Cl)cc3)=C(C)Nc3c(C(=O)Nc4ccccc4)cnn32)c1OC (configuration not stated),"inconclusive: 15.8 µM [activator, partial curve, poor fit]",–
O=C(CSc1nc2ccc(NC(=O)C3CCCCC3)cc2s1)NCC1CCCO1 (configuration not stated),"inconclusive: 7.08 µM [activator, single point]",–
COc1ccc(/C=C/C(=O)Nc2ccc3nc(N4CCC(C)CC4)cc(C)c3c2)cc1OC,–,inactive: 25.6%
Cc1ccc(/C=C2\Oc3cc(OCC(=O)NN)ccc3C2=O)o1,"inconclusive: 6.31 µM [activator, full curve]",–
CC(C)Sc1nc2c(cnn2-c2ccc(F)cc2)c(=O)[nH]1,–,inactive: 7.48%
CCc1nc2ccc(C(=O)Nc3cc(-c4ccccc4)ccc3OC)cn2c1N(C)CCCc1ccccc1,"inconclusive: 28.2 µM [activator, single point]",–
CC(=O)Nc1cc(C(=O)NCc2ccc(F)cc2)ccc1Sc1ccc(C)cc1,"inconclusive: 25.1 µM [activator, partial curve, poor fit]",–
O=c1c(-c2ccc3c(c2)OCCO3)coc2cc(O)cc(O)c12,"inconclusive: 5.01 µM [activator, full curve]",–

Compound,Potency,growth rescue (activation)
CN(C)c1ccc(CNC(=O)c2cc3ccccn3n2)cc1,–,inactive: 2.88%
Cc1cc(C)cc(NC(=O)CSc2nnc(COc3ccccc3Cl)o2)c1,–,inactive: 23.8%
Cc1cccc(N(C(=O)c2csnn2)C(C(=O)NCc2ccccc2)c2ccc(C)o2)c1 (configuration not stated),"inconclusive: 15.8 µM [activator, partial curve, poor fit]",–
COc1ccccc1C(=O)NS(=O)(=O)c1ccc(C)cc1,–,inactive: -25.5%
COc1ccc(N(C(=O)c2snc(C(N)=O)c2N)C(C(=O)NC2CCCC2)c2ccc(F)cc2)c(OC)c1 (configuration not stated),–,inactive: 10.5%
CCCCC1=CC2=C(c3ccco3)C(=O)C(C)(OC(=O)c3ccc(OC)cc3)C(=O)C2=CN1c1ccccc1 (configuration not stated),"inconclusive: 35.5 µM [activator, single point]",–
O=C(O)C1CC(c2ccccc2)=Nc2ccccc2S1 (configuration not stated),"inconclusive: 50.1 µM [activator, single point]",–
CN1CCSc2ccc(C(=O)NCc3cccc(Br)c3)cc21,–,inactive: 12.6%
COC(=O)c1c(C)[nH]c(C(=O)OCC(=O)N(CC(C)C)c2c(N)n(Cc3ccccc3)c(=O)[nH]c2=O)c1C,"inconclusive: 31.6 µM [activator, partial curve, poor fit]",–
Cc1ccc(S(=O)(=O)N(C)C[C@@H]2Oc3ccc(NS(=O)(=O)c4ccccc4)cc3CC(=O)N([C@@H](C)CO)C[C@H]2C)cc1,"inconclusive: 39.8 µM [activator, single point]",–
COc1cc(C(=O)OCC(=O)Nc2cccc(S(=O)(=O)N3CCCC3)c2)ccc1OCC(C)C,"inconclusive: 15.8 µM [activator, partial curve]",–
C=CCC[C@@H](Cc1ccc(F)cc1)C(=O)OCCNC(=O)[C@@H](CC=C)CC(=O)N(CCO)Cc1ccccc1,"inconclusive: 28.2 µM [activator, single point]",–
O=C(Nc1ccccc1)C1=C[C@@H](c2ccc(C(F)(F)F)cc2)C[C@@H](OCc2ccc(CO)cc2)O1,"inconclusive: 6.31 µM [activator, full curve, poor fit]",–
COc1ccc(Nc2nc(-c3sc(C)nc3C)cs2)c(OC)c1,–,inactive: 29.6%
Cc1ccc(C(=O)C2CCN(CC(=O)Nc3ccc4c(c3)OCCO4)CC2)cc1,"inconclusive: 11.2 µM [activator, partial curve, poor fit]",–
CCCN(CCC)C1=N/C(=C\c2ccco2)C(=O)N1c1ccccc1,"inconclusive: 25.1 µM [activator, single point]",–
Cc1cc(NC(=O)CSc2nc3ccsc3c(=O)n2NC(=O)c2ccccc2)no1,"inconclusive: 31.6 µM [activator, partial curve, poor fit]",–
O=C(COc1ccccc1F)Nc1ccc2nc(SCC(=O)N3CCc4ccccc43)sc2c1,–,inactive: 12.6%
C[C@@H]1C[C@H](Nc2ccccc2)c2ccccc2N1C(=O)c1cccnc1,–,inactive: -3.67%
Oc1ccc(Cl)cc1C=Nc1ccc2c3c(cccc13)CC2,–,inactive: 9.26%
